Experimental data published in the RNAGym collection of RNA variant scans (doi:10.1093/nar/gkz1192).
Read counts are not given, so values of variants with three or more changes are uncertain.

B1: CPEB3 Ribozyme (parent)
chain: UAACAGGGGGCCACAGCAGAAGCGUUCACGUCGCAGCCCCUGUCAGAUUCUGGUGAAUCUGCGAAUUCUGCUGUAUAUCUC

Variants of: B1
Assay: self-cleavage, relative activity (ratio to wild type); higher = more cleavage; in vitro, sequencing
Summary of the method: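 CPEB3 self-cleaving ribozyme mutant libraries were made by rounds of error-prone PCR, barcoded, and transcribed in vitro with T7 RNA polymerase for 5 hours at 37°C. Cleavage occurred during transcription and a 15 min DNase I step before EDTA stop. RNAs were reverse transcribed with template switching and Illumina-sequenced, with DNA sequencing mapping barcodes to variants. Relative activity is the variant's cleaved/total read fraction divided by wild type's (minimum 5 reads), averaged across three batches.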

Row | Variant | self-cleavage
1 | U54C A56G U60C | 0.39
2 | U54C A56U A57G A64G | 0.23
3 | U54C A56U A64G | 0.32
4 | U54C A56U C71U A75U | 0.33
5 | U54C A57G U60C U69C | 0.13
6 | U54C A57G U60C U78C | 0.39
7 | U54C A57G U67C | 0.17
8 | U54C A57U A64C | 0.2
9 | U54C A57U U80A | 0.85
10 | U54C A64G U80C | 0.87
11 | U54C A64U U80C | 0.34
12 | U54C A65C U67C | 0.11
13 | U54C A65G U78C | 0.31
14 | U54C A65G U78C U80C | 0.15
15 | U54C A65U U69C | 0.19
16 | U54C C68A U72C U78C | 0.28
17 | U54C C71A U78C | 0.13
18 | U54C U58C A65U | 0.14
19 | U54C U58C C62U | 0.34
20 | U54C U58C U60C A64G U69C | 0.17
21 | U54C U66C U67C | 0.22
22 | U54C U66C U74A | 0.47
23 | U54C U67A U74C A77G | 0.45
24 | U54C U67C U69A C71U | 0.14
25 | U54C U69C U78G | 0.47

Row | Variant | self-cleavage
26 | U54C U69G U80A | 0.53
27 | U54C U72C U78A | 1.03
28 | U54C U78A U80A | 1.22
29 | U54C U78C C79U | 1.23
30 | U54G A64G U74A | 1.14
31 | U54G A65C U72A | 0.13
32 | U54G U58G U69C A77U U78C | 0.15
33 | U54G U67C A75U | 0.16
34 | G55A A56G U80C | 0.81
35 | G55A A56G U80G | 1.04
36 | G55A A57U U60C | 0.21
37 | G55A U72C U80C | 1.21
38 | G55A U74C U78G | 1.26
39 | G55U A65G U69C | 0.23
40 | G55U U72C U80C | 1.2
41 | A56G A57G A64U U72A | 0.19
42 | A56G A57G U69C A77U | 0.18
43 | A56G A57G U80C | 0.44
44 | A56G A57U A75G | 0.23
45 | A56G A57U U72C | 0.22
46 | A56G A64C A75U U78A | 0.15
47 | A56G A64G U67C | 0.26
48 | A56G A64G U67C C68U | 0.36
49 | A56G A64G U74C | 0.96
50 | A56G A64U U66G | 0.15

Row | Variant | self-cleavage
51 | A56G A77G U80G | 0.93
52 | A56G U58G U67C | 0
53 | A56G U60A A64G U72C | 0.43
54 | A56G U60C A64G | 0.2
55 | A56G U60C A64G U72C | 0.17
56 | A56G U60C U80C | 0.42
57 | A56G U66C U80C | 0.65
58 | A56G U67A U69C | 0.24
59 | A56G U67C U74C | 0.26
60 | A56G U69A A77U | 0.53
61 | A56G U69A U76C | 0.7
62 | A56G U69A U78G | 0.78
63 | A56G U69C A77G | 0.5
64 | A56G U69C U72C | 0.35
65 | A56U A57G A75U U80C | 0.34
66 | A56U A57U A65G | 0.23
67 | A56U A64U U76C | 0.26
68 | A56U C59A U76G | 0.08
69 | A56U G61C A64U C68A U72A | 0.1
70 | A56U G63U U78C | 0.61
71 | A56U U58C U74A | 0.2
72 | A56U U60A U78A U80C | 0.21
73 | A56U U60C U69C G73A | 0.33
74 | A56U U66A U78A | 0.15
75 | A56U U66C U67C | 0.16

Row | Variant | self-cleavage
76 | A56U U69A U72C | 0.33
77 | A56U U69C U76C | 0.43
78 | A56U U74C U78A | 0.6
79 | A57C U69A U72A | 0.2
80 | A57G A64G U76G | 0.48
81 | A57G A64U A77U C81G | 0.34
82 | A57G A65C U72A U78C | 0.11
83 | A57G A65G A75G | 0.15
84 | A57G A65G U69G | 0.22
85 | A57G A75G C81U | 0.95
86 | A57G C62A A64G U74A | 0.69
87 | A57G C68G U80C | 0.23
88 | A57G C68U U72A | 0.41
89 | A57G C71G A77G | 0.29
90 | A57G G63C U78C | 0.79
91 | A57G U60C A77U | 0.43
92 | A57G U66C U69A U72G | 0.19
93 | A57G U66C U76C | 0.32
94 | A57G U67C A75G | 0.32
95 | A57G U74A A75G | 0.97
96 | A57U A64C U78C | 0.15
97 | A57U U66C C81U | 0.26
98 | U58A U60C C62A | 0.25
99 | U58A U72C A75G | 0.34
100 | U58C A64C U80C | 0.17

Row | Variant | self-cleavage
101 | U58C A65G U69C | 0.34
102 | U58C U60A C81G | 0.2
103 | U58C U60A U78A | 0.15
104 | U58C U60C U78C | 0.47
105 | U58C U67G U76A | 0.16
106 | U58C U69C A75U | 0.27
107 | U58C U69G U72C | 0.22
108 | U58C U72A U80C | 0.74
109 | U58C U72C U78C | 0.43
110 | U58C U72G A77U | 0.6
111 | U58C U74C A75C | 1.06
112 | C59A U69A U72A | 0.1
113 | C59U U69A U76C U80C | 0.58
114 | U60A A64G U72A U80A | 0.43
115 | U60A A65G U78C C81U | 0.23
116 | U60A C62A U66C U76C | 0.26
117 | U60A C62G U76A | 0.2
118 | U60A C68G U80C | 0.48
119 | U60A U69C U72A | 0.35
120 | U60A U69C U74A | 0.35
121 | U60A U74C U76A | 1.13
122 | U60C A64G U67A U78C | 0.19
123 | U60C A64U U67C | 0.3
124 | U60C A65G U69C | 0.24
125 | U60C A65G U76A | 0.3

Row | Variant | self-cleavage
126 | U60C G61A U67C U80C | 0.28
127 | U60C U69C U74A U80C | 0.53
128 | U60C U69C U74C | 0.62
129 | U60C U72C U76C | 0.52
130 | U60G U66C U67C | 0.18
131 | U60G U72C G73U C79A | 0.77
132 | G61C U72C U74C | 0.48
133 | C62A A65U G70A | 0.39
134 | C62A U69A U72C | 0.32
135 | C62G A64G A65U | 0.11
136 | C62G U67C C68A U69A | 0.23
137 | C62U U69C U72C | 0.26
138 | G63A A64G U72C U80C | 0.63
139 | G63A A64U U72A | 0.28
140 | G63A G70A U80C | 0.19
141 | A64G A65G U69A U76C A77G | 0.12
142 | A64G A65U U67C U72G A75G | 0.22
143 | A64G U66A U72A | 0.54
144 | A64G U69C U76C | 0.43
145 | A64G U72C U76A | 0.68
146 | A64U U67C U69G U72A | 0.22
147 | A64U U69C U74C | 0.18
148 | A65G U66C U69C U80C | 0.15
149 | A65G U67C U72C | 0.2
150 | A65G U69C U76C | 0.22

Row | Variant | self-cleavage
151 | A65G U72C U78A | 0.42
152 | A65G U74C U76A | 0.7
153 | U66A G70A U80C | 0.24
154 | U66A U72C U78A U80C | 0.63
155 | U66A U76C U78A | 0.64
156 | U66C U67C U72C U78G | 0.13
157 | U66C U69G U74A | 0.36
158 | U66C U72A A77G | 0.35
159 | U66C U72C U78C | 0.39
160 | U67C G70A U72A | 0.21
161 | U67C U72C U80C | 0.4
162 | U67C U74A A75U | 0.25
163 | U67G A77G U80C | 0.28
164 | C68A U69C C79G | 0.31
165 | U69A U78C U80C | 0.79
166 | U69C U72A U78A | 0.5
167 | C71A U72A U78C | 0.37
168 | C71U A75G U78C | 0.25
169 | U72A A77G U78C | 1.11
170 | U72A U74A U78C | 1.12
171 | U72A U76G U78C | 0.62
172 | U72C G73A U80C | 1.32
173 | U72C U74C U76C | 1.2
174 | G73A A75U U78C | 1.32
